# Assay results published in ChEMBL document CHEMBL1157539, “Thousands of chemical starting points for antimalarial lead identification” (Nature, 2010).
# The full ranking holds about 13,000 compounds; the median of “IFI” is about 4, and the highest 2% start at about 17. The list shows a part of the results.
# Assay: GSK_TCMDC: Inhibition Frequency Index (IFI). The number of non-kinase HTS assays where a compound showed > 50 % inhibition, expressed as a percentage of the number of such assays in which the compound was tested (-0 is zero)
# Assay type: functional
row,SMILES,IFI
1,Cc1cccc2nc(-c3cccc(-c4cccc(NC(=O)c5csnn5)c4)c3)[nH]c12,2.7%
2,COc1ccc2nccc(NC(=O)C3CCC(NCc4cnc(SC)c([N+](=O)[O-])c4)CC3)c2n1 (stereo not given),2.29%
3,Nc1cnc(C#Cc2cc3ncnc(N(CCN4CCOCC4)c4ccc(OCc5cccc(F)c5)c(Cl)c4)c3s2)cn1,7.94%
4,N#Cc1cccc(NC(=O)Nc2cccc(-c3cccc(-c4nc5cc(C(F)(F)F)ccc5[nH]4)c3)c2)c1,9.09%
5,O=C(Cc1ccccc1)NC(c1ccco1)c1cc(Cl)c2cccnc2c1O (stereo not given),8%
6,CCOc1c(OC)ccc2c1CCN(CCN1CCC(CNC(=O)c3ccc(-c4ccc(C#N)cc4)cc3)CC1)C2,4.55%
7,O=C(NCc1ccc(F)cc1)c1cc(Br)cc(N2CCN(c3ccncc3)CC2)c1,7.69%
8,Cc1cc(N[C@@H](Cc2ccccc2)C(=O)NCc2cccc(F)c2)nc(NCCc2ccc(F)cc2)n1,9.09%
9,CN1CCN(Cc2ccc(-c3ccc4c(Nc5cc(O)c(Cl)cc5F)ccnc4c3)o2)CC1,9.03%
10,O=[N+]([O-])c1ccc(C=NNc2nc3ccccc3[nH]2)cc1,0%
11,COc1cccc(CN(C(=O)Nc2ccccc2F)[C@H]2C[C@H]3C(=O)Nc4cc(F)ccc4C(=O)N3C2)c1,0.7%
12,O=C(/C=C/c1ccc(Cl)c(Cl)c1)N1CCC(CCN2CCC(c3c[nH]c4cc5c(cc34)OCO5)CC2)CC1,7.25%
13,Clc1ccc2c(N3CCN(CCN4CCN(c5ccnc6cc(Cl)ccc56)CC4)CC3)ccnc2c1,0%
14,CC(C)(C)C(=O)Nc1c(-c2cc(=O)oc3cc4c(cc23)CCC4)oc2ccccc12,5.08%
15,Nc1c(Cl)cc(C(O)CNCCCCCOCCc2ccccc2)cc1C(F)(F)F (stereo not given),3.01%
16,N#Cc1cncc(-c2nc3c(N4CCCC(N)C4)cccc3n2CCNCc2ccccc2)c1 (stereo not given),0%
17,O=C(Nc1ccc(Cn2ncc(N3CCCNCC3)c(Cl)c2=O)cc1)Nc1cc(C(F)(F)F)cc(C(F)(F)F)c1,5.88%
18,CC(C)S(=O)(=O)N1CCN(Cc2ccc3c(c2)nc(NC(=O)c2ccsc2)n3C[C@H](O)c2ccccc2)CC1,5.63%
19,Cc1cnc(-c2ccc(NC(=O)c3coc4ccc(N5CC(C)N(C)C(C)C5)cc34)cc2)o1 (stereo not given),3.52%
20,Oc1ccc(Cc2cc(Oc3c(I)cc(CCc4ncc[nH]4)cc3I)ccc2O)cc1,8.97%
21,CC(=O)Nc1ccc(CN(Cc2ccc(F)cc2)Cc2ccc3c(c2)OCO3)cc1,2.82%
22,c1ccc2c(NCCCCCCCNc3ccnc4ccccc34)ccnc2c1,11.3%
23,COc1ccc2nccc(NC(=O)C3CCC(NCc4ccc5c(c4)NC(=O)CS5)CC3)c2c1 (stereo not given),1.5%
24,CCCCCCc1ncc(-c2cc3cc(O)c(-c4ccccc4)cc3oc2=O)s1,-0%
25,Cc1ccoc1C(=O)Nc1cccc(-c2cccc(-c3nc4cc(C(F)(F)F)ccc4[nH]3)c2)c1,6.48%
26,O=C(O)CCc1ccc(-c2c[nH]c3ncc(-c4ccc5ncccc5c4)cc23)cc1,5.88%
27,O=C(NCc1ccc(C(=O)NC2CCCCC2)cc1)c1ccc(O)c(-c2ccc(Cl)c(Cl)c2)c1,3.68%
28,CCN(CC)CCN(Cc1ccc(-c2ccc(C(F)(F)F)cc2)cc1)C(=O)Cn1c(CCc2cccc(F)c2F)nc(=O)c2cc(F)ccc21,6.82%

row,SMILES,IFI
1,COc1cc(NC(=O)/C=C/c2ccccc2Cl)cc(OCCN2CCC(O)(c3ccccc3)CC2)c1,6.52%
2,Cc1cc(C)n(-c2nc(Nc3cccc(C(F)(F)F)c3)nc(-n3nc(C)cc3C)n2)n1,0.74%
3,COc1ccc(NC(=O)[C@H](CC(C)C)Nc2ccnc(NCCc3ccc(F)cc3)n2)cc1,6.82%
4,CC(CN(C)C)C(=O)Nc1cccc(-c2ccc(-c3nc4cc(F)ccc4[nH]3)s2)c1 (stereo not given),3.64%
5,N=C(N)Nc1nc(-c2cc(NC(=O)C(F)(F)F)cc([N+](=O)[O-])c2)cs1,2.24%
6,C/C=C/C=C/C1=NCCc2cc(OCCC)ccc21,8.76%
7,O=C1SC(=Cc2ccc(O)c(O)c2)C(=O)N1c1ccccc1,9.86%
8,CC1CN(c2cc(=O)n(Cc3cccc(NC(=O)Nc4ccc(-c5ccccc5)cc4)c3)cn2)CC(C)N1 (stereo not given),7.53%
9,CCC(CC)N1C(=O)C(c2ccccc2)(c2ccccc2)N=C1N,0.95%
10,O=C(N[C@H]1CCN(CCc2ccc(O[C@H]3CCNC3)c(F)c2)C1)c1ccc(Cl)c(Cl)c1,6%
11,Cc1cc(=O)c(-c2ccc(OCc3ccc(OC(F)(F)F)cc3)cc2)c(C)[nH]1,3.64%
12,COc1cc(/C=C/C(=O)NCC(CCNc2cc(=O)c3ccccc3[nH]2)NCc2cc(Br)cc(Br)c2)cc(OC)c1 (stereo not given),7.91%
13,COc1ccc2c(c1)C(C)(CCCN(C)C)C(=O)N2C (stereo not given),0%
14,COc1ccc(C(=O)CCC(=O)N(CCC2CCCN2C)Cc2ccc(-c3ccc(CNCCc4ccc(S(C)(=O)=O)cc4)cn3)cc2)cc1F (stereo not given),3.55%
15,O=C(NCCN1CCC(c2ncc(-c3ccccc3)o2)CC1)c1ccc(NC(=O)c2ccc(Cl)cc2)cc1,8.55%
16,Cc1nn(C)cc1C(C)Nc1nncc(-c2ccc(C(F)(F)F)cc2)n1 (stereo not given),2.38%
17,O=C(/C=C/c1ccc(I)cc1)NCCCCCN1CCC(c2c[nH]c3ccc(O)cc23)CC1,2.88%
18,Cc1ccc(Nc2nc(C)cc(N3CCN(CCc4ccccc4)CC3)n2)cc1,11.9%
19,CC(C)c1ccc(NC(=O)c2ccc(C(=O)NC3CCN(CC4CCCCC4)CC3)cc2)cc1,4.35%
20,Oc1ccc(-c2cc(-c3ccc(O)cc3)nc(-c3ccccc3)n2)cc1,4.17%
21,c1cc(C2=NC3CCCCC3N2)ccc1OCCCOc1ccc(C2=NC3CCCCC3N2)cc1 (stereo not given),2.21%
22,Cc1cc(NC2CCN(CC3CCCCC3)C2)nc(Nc2ccc(Br)cc2)n1 (stereo not given),5.13%
23,CCCCCCCNC(=O)NCC1CCCN(CCCCCNC(=O)/C=C/c2ccc(Cl)c(Cl)c2)C1 (stereo not given),10.5%
24,Cc1ccccc1C1CCN(C2CCC(NC(=O)c3cc4cc(C(C)C)ccc4[nH]3)CC2)CC1 (stereo not given),19.6%
25,CNS(=O)(=O)c1ccc2c(c1)nc(C1CCN(CC3CCC(NC(=O)/C=C/c4ccc(Cl)c(Cl)c4)CC3)CC1)n2C (stereo not given),5.84%
26,CN(C)Cc1ccc(-c2ccc3c(Nc4ccc(Oc5ccccn5)cc4)ccnc3c2)o1,7.19%
27,COc1cc(N)cc2sc(N)nc12,4.93%
